Measurements published in article PMC12136788.
This is one part of the list.

T1: UNK ZnF1-3 (human, UniProt Q9C0B0 31-174)
T1 sequence: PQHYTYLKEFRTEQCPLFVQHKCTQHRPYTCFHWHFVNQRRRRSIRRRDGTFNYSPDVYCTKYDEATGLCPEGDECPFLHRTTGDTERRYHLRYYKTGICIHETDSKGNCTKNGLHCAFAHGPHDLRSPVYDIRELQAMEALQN

B1: chr2:160604994:160604995:+_ENSG00000136536_ENST00000409591|hu_mus|motif|central (ssRNA)
RNA: GGGAGUUCUACAGUCCGACGAUCUCUUGAAGACUCAUCCCUUCCCUCUCGCCUCCUUCUCGAGAACAAAGGUGUGCAUCGGUUUCGGAGUGAAGAAGACAACCAUGGUCCUGAAUUUCUACCUUCUGAUUCUUGGUUAAAAUUCAACAGAGGAUUGAGCAUCA
B2: 96340820_96341848_1134_3pUTR_ENSMUSG00000031217_ENSMUST00000052839|mouse|control|control (ssRNA)
RNA: GGGAGUUCUACAGUCCGACGAUCCUCCAGUCCCUCCAAGCUCCCAUUGGACGUUGAUGUAAUGUAGUAAUCGUGGUACUUUUUGAAUUCCAGGCCCAUGUAGUUGGGGCUGAACUCUUGGAACUUGAUGGUGAAGCGGAUUUCCAACAGAGGAUUGAGCAUCA
B3: chr1:66480114:66480115:+_ENSMUSG00000015222_ENSMUST00000024639|mus_hu|mus_mus_mus_hu_True|48_98 (ssRNA)
RNA: GGGAGUUCUACAGUCCGACGAUCUGGCCUGUGGCGGAUGUUCUUUAGAGAGCCACAUUUGGAUGUCACAUGGCUUAGGUCUAUUUUCUUAGUAACAAUUUGUACCUGCCCCCCUUUAGGCUGGUAUUUGAUGUUGUCUGUUGACAACAGAGGAUUGAGCAUCA
B4: chrX:119680447:119680448:-_ENSG00000158290_ENST00000371322|hu_hu|motif|central (ssRNA)
RNA: GGGAGUUCUACAGUCCGACGAUCAAACAAAAAAAUGCUCCUGAUCAUGAUCAUUUGUCUGCAAUGGUUUUGCCAGCAUCGGUCAAUCUUCUUUAAAAAAAGAACGCUAUCCAAUGAAUCCUCUCUGAAUUGAUGAAUCUGUGCCAACAGAGGAUUGAGCAUCA
B5: chr16:49915050:49915051:+_ENSMUSG00000055447_ENSMUST00000084838|mus_mus|FALSE|FALSE (ssRNA)
RNA: GGGAGUUCUACAGUCCGACGAUCAUUAAGUAUAUAUAAUAUUACAGGGUAAUAUUUACACAGUUAUUUUUUUAAAUAAAAAAGUAUCUUGGCAAAGAUUGCAGGUAUUCAAAGCUUCAAACAGUGAUAAAUUGAUUUAAUACACAACAGAGGAUUGAGCAUCA
B6: chr17:13109412:13109413:+_ENSMUSG00000068039_ENSMUST00000151287|mus_mus|FALSE|FALSE (ssRNA)
RNA: GGGAGUUCUACAGUCCGACGAUCGUGCUGCGGUCCCCGAACACGGACAAAGGACCCUCCAUCUUCAGGAAACGAAGCAAAGCUCACUACGGCCGCAGACAACCGAUAGCUCCGCUCUGAGACCGUUUAACGGCCACCACGGCGCAACAGAGGAUUGAGCAUCA
B7: 14487958_14488078_7305_CDS_ENSG00000038382_ENST00000344204|human|control|control (ssRNA)
RNA: GGGAGUUCUACAGUCCGACGAUCCCCAAGCGGCAGGGUGCCCAGGCUAGCGCGCGCGUCCUUGGCGGGGGCGUCUGGGCUCGACCCCGAGGCGUUCGCGGCGCCUUUCCUGGGGCUCUCCAGCACCUUCAUCUUGGGGAUCGGCAACAGAGGAUUGAGCAUCA
B8: chr2:9570881:9570882:+_ENSG00000119203_ENST00000238112|hu_mus|hu_hu_hu_mus_False|8_88 (ssRNA)
RNA: GGGAGUUCUACAGUCCGACGAUCACUUGUCUUCUGAAGGAACCAGGGCAGAGCUCCACAGUGAUCCAAAUGGAAAUGACUGAUCAACAGAAGGUCGAUCUCAGCUGGGUCGAUAAGGUCAAUGUAAGGAAGAGCAUCCAUUCCCAACAGAGGAUUGAGCAUCA
B9: chr11:57926588:57926589:+_ENSMUSG00000020515_ENSMUST00000020822|mus_hu|motif|central (ssRNA)
RNA: GGGAGUUCUACAGUCCGACGAUCGUCAAUCCCUUCCUCUUCAUGCUUCUGAAACUGUAGUCCUGAGUUAGCAAGGAGAUCGGUGGAAUCCUGGGAGUACAUGUCCUCUGUAAGGUUAAAUUUGAAAUUGAACUGCCAAGUAUUCAACAGAGGAUUGAGCAUCA
B10: chr5:37680062:37680063:+_ENSMUSG00000029121_ENSMUST00000031004|mus_hu|mus_mus_mus_hu_False|18_78 (ssRNA)
RNA: GGGAGUUCUACAGUCCGACGAUCUUUGGGUGUAGCUGGUACCUCGUACACAGGACCAUCGUACAUGCCCCUGGAAACCCCUUGCAAUCCAAAAACCUUAUUCCUGAUUUUGACGCGCUGGUAGAGAUGCUCCGGGAACGCCUUCAACAGAGGAUUGAGCAUCA
B11: chr2:119552488:119552489:+_ENSMUSG00000027304_ENSMUST00000028767|mus_mus|FALSE|FALSE (ssRNA)
RNA: GGGAGUUCUACAGUCCGACGAUCAAACAUCGCUUCUUUCCACUUCAUGAAUUCACUUUCAGUGAAUUCUUGGUUGGACACAAACUCUAGGCGGAACACUCGCUGGUCAUUGCCAUGCCGUAGCUGGAGCCCUUUAUUUGUUCUCAACAGAGGAUUGAGCAUCA
B12: chr2:30381511:30381512:+_ENSG00000119801_ENST00000261353|hu_mus|FALSE|FALSE (ssRNA)
RNA: GGGAGUUCUACAGUCCGACGAUCCAUGUGGCGGCCAGUGAGCAUGACCCGAUCUUGAACUUCACUGUACUGCAAGUUAACUACCUUGUUAAAAAGAAAUGCUCUACCAGUGGCGCCUGUGAACCGAGUAGAGAUGAGUUCUGACAACAGAGGAUUGAGCAUCA
B13: chr15:42709458:42709459:-_ENSG00000103994_ENST00000263805|hu_hu|motif|central (ssRNA)
RNA: GGGAGUUCUACAGUCCGACGAUCUCACCAAGAAAGGGAAGAGAGUGGCCUGUGUGGGGGGCCAAUGUGAAAAUAGUUCAACGGAUGACUUCCCAACGUGGGAGGCAAAAAACUUCAUGAAUCAAUUUUGCUGUCAUCUUCAGCCAACAGAGGAUUGAGCAUCA
B14: chr2:65473708:65473709:+_ENSG00000138071_ENST00000260641|hu_hu|motif|central (ssRNA)
RNA: GGGAGUUCUACAGUCCGACGAUCUUUCUCUGGUCCAAAUGUGUAGUCCCACAGGUGUUUCAUGUCAUCCCAAUUUCGUACGGUGCCAUUUUCCAUAGGGUAGUUAACUUCUAACAUUGAUCGUAAUUCACUUGCCUCAUCACCCAACAGAGGAUUGAGCAUCA
B15: chr6:145182920:145182921:-_ENSMUSG00000030265_ENSMUST00000032399|mus_mus|FALSE|FALSE (ssRNA)
RNA: GGGAGUUCUACAGUCCGACGAUCCUCCUCUUGACCUGCUGUGUCGAGAAUAUCCAAGAGACAGGUUUCUCCAUCAAUUACUACUUGUUUCCUGUAGGAGUCCUCUAUCGUAGGGUCAUACUCAUCCACAAAGUGAUUCUGAAUCAACAGAGGAUUGAGCAUCA
B16: chr1:196642661:196642662:+_ENSMUSG00000026640_ENSMUST00000027952|mus_mus|FALSE|FALSE (ssRNA)
RNA: GGGAGUUCUACAGUCCGACGAUCUCCCAUACAUUCAGGAACUUUGGUCCUGUUUGGUGGGGACCACACUUCUUUAUGCGUGGAUGUCAAAAUGGAGACCAAGCGUGUCAAAAUGAUGACCUUGACUGAGUCUCAAAGAAGCUUCAACAGAGGAUUGAGCAUCA
B17: chr7:135612270:135612271:-_ENSG00000105887_ENST00000393085|hu_mus|hu_hu_hu_mus_False|8_98 (ssRNA)
RNA: GGGAGUUCUACAGUCCGACGAUCGUUUUUUUCUGAGUAAGUAUUACGUACUUCAGUGGAAAACAAAACUUAACCUUUUAUUAAUGCGUGUUGUACCAAAAGCAGACAUUUUAGCUUCAUUUAUUCACUCAAAAUAUCAUUAAGCAACAGAGGAUUGAGCAUCA
B18: chr5:141111964:141111965:-_ENSMUSG00000036565_ENSMUST00000042661|mus_mus|FALSE|FALSE (ssRNA)
RNA: GGGAGUUCUACAGUCCGACGAUCGUGCUCGUCUGUCUUUCUCCUCCGGCAGCACAGCCAGAAGGAAUAGAAGAGUAGGAAGAGGAGAUCUAGGGCCAGGCAGGCCAGGGCGGUGGCCCCCAGCAGCAGCAACGCCUGCUGGUACAACAGAGGAUUGAGCAUCA
B19: chr4:140556289:140556290:+_ENSMUSG00000036622_ENSMUST00000037055|mus_mus|mus_mus_mus_hu_False|28_48 (ssRNA)
RNA: GGGAGUUCUACAGUCCGACGAUCGAUGGAGCUCACCAGGCCCCCUUUUGCCGUGCAGAACCCUGUGCGGGUCACCACUGCCAGGACACGGGGUCCCACAUAGGCCCGGGCCUGCAGGAUGAGGGUCCCGCAGAAGAGUGUGUGCAACAGAGGAUUGAGCAUCA
B20: chr4:76721835:76721836:+_ENSG00000138768_ENST00000264904|hu_mus|hu_hu_hu_mus_True|1_28 (ssRNA)
RNA: GGGAGUUCUACAGUCCGACGAUCGUUUGGCUGGGGUUUCUGAGACGCUCUGGAAUAUAACUCAUGUUUGCUAAUAAAUCCUAGUUUCUCUAUGAAAUUCUCUUUGCAAUCCUCUUCCUCUAUUAGUUGCUUUAGUUCUCUUUCCAACAGAGGAUUGAGCAUCA
B21: chr5:145888941:145888942:+_ENSMUSG00000029622_ENSMUST00000085679|mus_hu|FALSE|FALSE (ssRNA)
RNA: GGGAGUUCUACAGUCCGACGAUCCUCCACAUUUUGAAGCAGUUCAUGACCAGCAUAGUGCUUUGGGGGCAUUUUUUUUUUUUUUCAAUAAAUGAAAGCAUUUAAGAAAAAGGCACGUAUUCCUUGAAUAGGUAAGAAAAGCUCCAACAGAGGAUUGAGCAUCA
B22: chr16:75661828:75661829:-_ENSG00000065427_ENST00000302445|hu_mus|FALSE|FALSE (ssRNA)
RNA: GGGAGUUCUACAGUCCGACGAUCAUGUGCCUUCUAGACAGAGGGGCUGGCCUCUGUGCUCUCUGGGGUUUCAGUGGUCGCUGCAGUUUCCUUCUUGUCCUCUGGCUUCAUGGCAGGAAACAGAAGUACUUCCUUGAUAUUGUUCAACAGAGGAUUGAGCAUCA

Biological target: T1, UNK ZnF1-3
Assay: nsRBNS (natural sequence RNA bind-n-seq); RBNS binding buffer (assumed for nsRBNS): 25 mM Tris pH 7.5, 150 mM KCl, 3 mM MgCl2, 0.01% Triton X-100, 500 ug/ml BSA, 20 U/ml SUPERase-In, 4 C; UNK is unkempt and MSI1 is Musashi-1; names of the RNAs are library labels; protein concentration not given here; high values mean tight binding

B1 was tested. Which binding signal did it give?
The binding signal was 0.976 enrichment R.

Which binding signal does the source give for B2 here?
The binding signal was 1.23 enrichment R.

For B3, which binding signal is on record?
Its binding signal is 0.448 enrichment R.

With B4 as the binder, how does the binding signal read?
The binding signal was 1.25 enrichment R.

Which binding signal does the source give for B5 here?
The binding signal was 1.21 enrichment R.

With B6 as the binder, how does the binding signal read?
The binding signal was 0.693 enrichment R.

With B7 as the binder, how does the binding signal read?
The binding signal was 0.485 enrichment R.

B8 was tested. Which binding signal did it give?
Its binding signal is 1.96 enrichment R.

B9 was tested. Which binding signal did it give?
Its binding signal is 1.24 enrichment R.

For B10, which binding signal is on record?
Its binding signal is 0.765 enrichment R.

Which binding signal does the source give for B11 here?
The binding signal was 0.627 enrichment R.

For B12, which binding signal is on record?
Its binding signal is 1.23 enrichment R.

Which binding signal does the source give for B13 here?
Its binding signal is 1.6 enrichment R.

For B14, which binding signal is on record?
Its binding signal is 0.661 enrichment R.

Which binding signal does the source give for B15 here?
Its binding signal is 0.527 enrichment R.

Which binding signal does the source give for B16 here?
The binding signal was 0.576 enrichment R.

For B17, which binding signal is on record?
Its binding signal is 0.401 enrichment R.

With B18 as the binder, how does the binding signal read?
The binding signal was 0.851 enrichment R.

For B19, which binding signal is on record?
Its binding signal is 0.859 enrichment R.

With B20 as the binder, how does the binding signal read?
The binding signal was 0.555 enrichment R.

How did the binding signal turn out when B21 was run?
The binding signal was 1.5 enrichment R.

Which binding signal does the source give for B22 here?
The binding signal was 0.451 enrichment R.
